This passage reports binding signal results from publication PMC9911399, “Two distinct binding modes provide the RNA-binding protein RbFox with extraordinary sequence specificity”.

First the molecules themselves.
T1: RBFOX1 RRM RbFoxmut (Fox-RRM*) (Homo sapiens, UniProt Q9NWB1 109-208, R118D;E147R;N151S;E152T)
T1 sequence: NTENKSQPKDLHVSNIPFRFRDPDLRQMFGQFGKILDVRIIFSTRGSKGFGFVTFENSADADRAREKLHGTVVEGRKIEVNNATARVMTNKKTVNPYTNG

B1: AGCACAG (DNA:RNA)
RNA: GGGAGACCGGAAUUCAGAUUGUCCAGCACAGUUAAAUCCCGUCGUAGCCACCA
DNA 1: CAATCTGAATTCCGGTCTCCC
DNA 2: TGGTGGCTACGACGGGATT
B2: CGUCCCU (DNA:RNA)
RNA: B1 RNA with A25C, C27U, A28C, A30C, G31U
DNA 1: CAATCTGAATTCCGGTCTCCC
DNA 2: TGGTGGCTACGACGGGATT
B3: CGACCAC (DNA:RNA)
RNA: B1 RNA with A25C, C27A, A28C, G31C
DNA 1: CAATCTGAATTCCGGTCTCCC
DNA 2: TGGTGGCTACGACGGGATT
B4: GCGGAAU (DNA:RNA)
RNA: B1 RNA with A25G, G26C, C27G, A28G, C29A, G31U
DNA 1: CAATCTGAATTCCGGTCTCCC
DNA 2: TGGTGGCTACGACGGGATT
B5: UUACUGG (DNA:RNA)
RNA: B1 RNA with A25U, G26U, C27A, A28C, C29U, A30G
DNA 1: CAATCTGAATTCCGGTCTCCC
DNA 2: TGGTGGCTACGACGGGATT
B6: GCCCUCU (DNA:RNA)
RNA: B1 RNA with A25G, G26C, A28C, C29U, A30C, G31U
DNA 1: CAATCTGAATTCCGGTCTCCC
DNA 2: TGGTGGCTACGACGGGATT
B7: ACCGAAG (DNA:RNA)
RNA: B1 RNA with G26C, A28G, C29A
DNA 1: CAATCTGAATTCCGGTCTCCC
DNA 2: TGGTGGCTACGACGGGATT
B8: ACAAACG (DNA:RNA)
RNA: B1 RNA with G26C, C27A, C29A, A30C
DNA 1: CAATCTGAATTCCGGTCTCCC
DNA 2: TGGTGGCTACGACGGGATT
B9: CGUCUAA (DNA:RNA)
RNA: B1 RNA with A25C, C27U, A28C, C29U, G31A
DNA 1: CAATCTGAATTCCGGTCTCCC
DNA 2: TGGTGGCTACGACGGGATT
B10: ACUUGCG (DNA:RNA)
RNA: B1 RNA with G26C, C27U, A28U, C29G, A30C
DNA 1: CAATCTGAATTCCGGTCTCCC
DNA 2: TGGTGGCTACGACGGGATT
B11: UAAUCGG (DNA:RNA)
RNA: B1 RNA with A25U, G26A, C27A, A28U, A30G
DNA 1: CAATCTGAATTCCGGTCTCCC
DNA 2: TGGTGGCTACGACGGGATT
B12: UUUACGU (DNA:RNA)
RNA: B1 RNA with A25U, G26U, C27U, A30G, G31U
DNA 1: CAATCTGAATTCCGGTCTCCC
DNA 2: TGGTGGCTACGACGGGATT
B13: UGUGGAU (DNA:RNA)
RNA: B1 RNA with A25U, C27U, A28G, C29G, G31U
DNA 1: CAATCTGAATTCCGGTCTCCC
DNA 2: TGGTGGCTACGACGGGATT
B14: ACUCCUU (DNA:RNA)
RNA: B1 RNA with G26C, C27U, A28C, A30U, G31U
DNA 1: CAATCTGAATTCCGGTCTCCC
DNA 2: TGGTGGCTACGACGGGATT
B15: CACUGCU (DNA:RNA)
RNA: B1 RNA with A25C, G26A, A28U, C29G, A30C, G31U
DNA 1: CAATCTGAATTCCGGTCTCCC
DNA 2: TGGTGGCTACGACGGGATT
B16: CCGCGAA (DNA:RNA)
RNA: B1 RNA with A25C, G26C, C27G, A28C, C29G, G31A
DNA 1: CAATCTGAATTCCGGTCTCCC
DNA 2: TGGTGGCTACGACGGGATT
B17: AGCGCCC (DNA:RNA)
RNA: B1 RNA with A28G, A30C, G31C
DNA 1: CAATCTGAATTCCGGTCTCCC
DNA 2: TGGTGGCTACGACGGGATT
B18: UGGAGCA (DNA:RNA)
RNA: B1 RNA with A25U, C27G, C29G, A30C, G31A
DNA 1: CAATCTGAATTCCGGTCTCCC
DNA 2: TGGTGGCTACGACGGGATT
B19: UGCUCAU (DNA:RNA)
RNA: B1 RNA with A25U, A28U, G31U
DNA 1: CAATCTGAATTCCGGTCTCCC
DNA 2: TGGTGGCTACGACGGGATT
B20: CUAGCGU (DNA:RNA)
RNA: B1 RNA with A25C, G26U, C27A, A28G, A30G, G31U
DNA 1: CAATCTGAATTCCGGTCTCCC
DNA 2: TGGTGGCTACGACGGGATT

Numbering of substitutions follows the chain as printed; changes in the protein carry UniProt numbers. This is one part of the list.

The target of this experiment is T1, RBFOX1 RRM RbFoxmut (Fox-RRM*). The experiment in a line: EMSA; HiTS-Eq, 1 nM pool, 10 min; buffer printed only for the single-RNA assays: 10 mM Tris pH 7.5, 150 mM NaCl, 3.4 mM EDTA, 0.001% NP-40, 30 C. As to conditions: tags: His6 N-terminal (pET28a); label: 5' 32P. Put shortly:
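Purified RbFox RRM (wild type or mutant) was equilibrated for 10 min in 50 µL with 1 nM of a 5′-radiolabelled pool of RNA with 7 randomized nucleotides, its flanks annealed to DNA oligonucleotides, across increasing protein concentrations. Free RNA was separated by 8% native PAGE, excised, reverse-transcribed, PCR-barcoded and sequenced on an Illumina HiSeq 2500. Relative association constants came from read-count changes of each variant against the control reaction, normalised to the cognate motif.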
For the molecule B1, the binding signal was 0.0544 KA relative to UGCAUGU.
For B2, the binding signal was 0.0565 KA relative to UGCAUGU.
Then B3, with 0.0643 KA relative to UGCAUGU; and B4, with 0.106 KA relative to UGCAUGU; and B5, with 0.101 KA relative to UGCAUGU.
Next, B6: 0.0586 KA relative to UGCAUGU.
Then B7, with 0.0896 KA relative to UGCAUGU.
For B8, the binding signal is 0.0999 KA relative to UGCAUGU.
Next, B9: 0.105 KA relative to UGCAUGU; B10: 0.156 KA relative to UGCAUGU; B11: 0.0737 KA relative to UGCAUGU.
Next, B12: 0.112 KA relative to UGCAUGU.
For B13, the binding signal is 0.118 KA relative to UGCAUGU.
Take B14: the binding signal was 0.0436 KA relative to UGCAUGU.
Next, B15: 0.119 KA relative to UGCAUGU; B16: 0.0844 KA relative to UGCAUGU.
Next, B17: 0.0626 KA relative to UGCAUGU.
Next, B18: 0.171 KA relative to UGCAUGU; B19: 0.121 KA relative to UGCAUGU; B20: 0.0865 KA relative to UGCAUGU.
